These results are taken from publication PMC4336329 (PLoS ONE, 2015).

The campaign covered roughly 310,000 compounds. About 14,000 (4.5%) showed an effect of 50% or more. Effects have a minus sign here. The list shows a part of the results.
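Further: peak tail current of the secondary pulse compared with the same well before compound.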

In the test the target is human ether-à-go-go-related gene (hERG) potassium channel (human, UniProt Q12809). Description: primary screen, population patch clamp on CHO cells stably expressing hERG.
human ether-à-go-go-related gene (hERG) potassium channel, sequence (Q12809 whole entry, looked up): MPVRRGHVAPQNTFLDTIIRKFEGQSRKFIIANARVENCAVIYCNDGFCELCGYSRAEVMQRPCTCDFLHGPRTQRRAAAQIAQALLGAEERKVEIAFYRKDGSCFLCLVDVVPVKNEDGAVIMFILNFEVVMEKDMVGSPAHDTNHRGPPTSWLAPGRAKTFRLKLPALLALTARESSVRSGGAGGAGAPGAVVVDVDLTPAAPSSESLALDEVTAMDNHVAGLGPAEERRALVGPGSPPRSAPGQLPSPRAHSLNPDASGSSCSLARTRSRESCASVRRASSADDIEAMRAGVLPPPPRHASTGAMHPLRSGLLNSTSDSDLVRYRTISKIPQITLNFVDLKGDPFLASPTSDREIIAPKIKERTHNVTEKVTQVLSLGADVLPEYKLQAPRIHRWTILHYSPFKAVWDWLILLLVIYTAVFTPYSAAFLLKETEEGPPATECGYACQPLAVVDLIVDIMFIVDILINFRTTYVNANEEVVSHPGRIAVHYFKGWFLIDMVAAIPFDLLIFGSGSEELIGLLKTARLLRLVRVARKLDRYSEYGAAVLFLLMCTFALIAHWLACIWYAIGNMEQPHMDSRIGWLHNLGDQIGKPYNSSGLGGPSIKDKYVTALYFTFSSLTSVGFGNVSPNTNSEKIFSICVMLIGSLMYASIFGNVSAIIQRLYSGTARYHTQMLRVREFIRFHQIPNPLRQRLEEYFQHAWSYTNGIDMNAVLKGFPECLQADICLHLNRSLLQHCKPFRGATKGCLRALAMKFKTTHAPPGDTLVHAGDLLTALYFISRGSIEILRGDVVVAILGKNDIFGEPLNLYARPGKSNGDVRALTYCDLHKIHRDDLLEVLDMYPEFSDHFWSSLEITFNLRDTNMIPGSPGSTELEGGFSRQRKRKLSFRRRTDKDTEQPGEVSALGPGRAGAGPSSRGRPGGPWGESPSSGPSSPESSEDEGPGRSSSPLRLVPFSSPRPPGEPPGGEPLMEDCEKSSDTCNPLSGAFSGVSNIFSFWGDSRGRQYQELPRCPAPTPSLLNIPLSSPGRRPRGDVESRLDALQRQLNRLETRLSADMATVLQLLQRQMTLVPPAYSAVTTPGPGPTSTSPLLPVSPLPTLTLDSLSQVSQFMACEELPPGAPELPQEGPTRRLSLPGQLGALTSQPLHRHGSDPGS
On to `COc1ccc(OC)c(NC(=O)CCN2CC(C)OC(C)C2)c1` (centres unmarked), for which the “hERG current change (%, negative = inhibition) at 10uM” value was found to be 2.92%.

For the compound `O=C(Nc1cccc(C(F)(F)F)c1)OC1CN2CCC1CC2` (centres unmarked), the “hERG current change (%, negative = inhibition) at 10uM” value was -28.5%.

In the case of `COc1ccc(CCNC(=O)C2CCN(S(=O)(=O)N3CCC(C)CC3)CC2)cc1OC`, the “hERG current change (%, negative = inhibition) at 10uM” value is -4.77%.

For `O=C(Cc1cccc2ccccc12)Nc1nnc(-c2cccc([N+](=O)[O-])c2)s1`, the “hERG current change (%, negative = inhibition) at 10uM” value is 17.6%.

Regarding `COc1cc(/C=C2\NC(=S)NC2=O)ccc1OCc1cccc(C(=O)O)c1`, the “hERG current change (%, negative = inhibition) at 10uM” value came to 11.1%.

Regarding `COc1cc(OC)c(OC)cc1CN1CCCC(C(=O)N2CCCC2)C1.O=C(O)C(=O)O` (centres unmarked), the “hERG current change (%, negative = inhibition) at 10uM” value is reported as 17.4%.

Take `CCn1c(CNC(=O)c2ccco2)nnc1SCCOc1ccccc1`: the “hERG current change (%, negative = inhibition) at 10uM” value was -7.69%.

Turning to `O=C(NC1CCCC1)c1ccc(Br)o1`, the “hERG current change (%, negative = inhibition) at 10uM” value is reported as -4.8%.

Turning to `CN(C)S(=O)(=O)c1cccc(-c2cn3cccnc3n2)c1`, the “hERG current change (%, negative = inhibition) at 10uM” value turned out to be 21.5%.

For `COc1ccc(/C=C(\C#N)C(=O)N2COCC2(C)C)cc1`, the “hERG current change (%, negative = inhibition) at 10uM” value is 9.99%.

Consider `CCOc1ccc(NS(=O)(=O)c2ccc(NC(=S)NC(C)=O)cc2)cc1`, for which the “hERG current change (%, negative = inhibition) at 10uM” value is 15.5%.

`COc1ccc(N(C(C)C(=O)N(C)Cc2ccccc2)S(C)(=O)=O)cc1` (centres unmarked): the “hERG current change (%, negative = inhibition) at 10uM” value amounted to 12.9%.

In the case of `Cc1c(C(c2cc3c(cc2Br)OCO3)c2c(C)n(C)n(-c3ccccc3)c2=O)c(=O)n(-c2ccccc2)n1C`, the “hERG current change (%, negative = inhibition) at 10uM” value is given as -6.73%.

In the case of `COc1ccc(C(=O)Cn2c3ccccc3n3nc(CCC(=O)O)c(=O)nc23)cc1OC`, the “hERG current change (%, negative = inhibition) at 10uM” value is 3.71%.

Regarding `COc1ccc(CNCc2ccc3ccccc3c2)c(OC)c1.O=C(O)C(=O)O`, the “hERG current change (%, negative = inhibition) at 10uM” value is on record as -68.3%.

With `COc1ccc(C2CC(c3ccccc3)=NN2C(=O)COC(=O)c2cnc(Cl)c(Cl)c2)cc1` (centres unmarked), the “hERG current change (%, negative = inhibition) at 10uM” value is listed as -1.68%.

For `COc1ccc(NC(=O)c2cc3ccccc3[nH]2)cc1`, the “hERG current change (%, negative = inhibition) at 10uM” value came to 15.4%.

As to `CCC1CCCCN1C(=O)c1cc(COc2ccc3ncccc3c2)on1` (centres unmarked), the “hERG current change (%, negative = inhibition) at 10uM” value is 0.129%.

With `COC(=O)C1=C(c2ccc(OC)c(OC)c2)C[C@@H]2CC[C@H]1N2C(=O)NC1CC1`, the “hERG current change (%, negative = inhibition) at 10uM” value was determined as 14.9%.

Regarding `CCOC(=O)c1cc(-c2cc(OC)c(OC)c(OC)c2)nc2c1c(=O)[nH]c(=O)n2Cc1ccccc1`, the “hERG current change (%, negative = inhibition) at 10uM” value was found to be 1.34%.

In the case of `COc1ccc(CCNC(=O)CS(=O)(=O)Cc2nc(-c3ccc(C)cc3)oc2C)cc1OC`, the “hERG current change (%, negative = inhibition) at 10uM” value is on record as 2.05%.

Regarding `CC(O)c1ccc(Oc2cnccn2)cc1` (centres unmarked), the “hERG current change (%, negative = inhibition) at 10uM” value was determined as 22.3%.

For `Cn1cnnc1SCC(=O)NN1C(=O)NC(C)(c2ccccc2)C1=O` (centres unmarked), the “hERG current change (%, negative = inhibition) at 10uM” value is -0.165%.

For `C=C(c1ccc(OCCO)cc1)c1ccc(OCCO)cc1`, the “hERG current change (%, negative = inhibition) at 10uM” value is listed as 21.2%.

For the compound `COc1cc(/C=C/C2=NC(=O)C(C)(C)O2)ccc1O`, the “hERG current change (%, negative = inhibition) at 10uM” value turned out to be 10.7%.

For `O=C(Cc1ccccn1)c1ccc(O)cc1O`, the “hERG current change (%, negative = inhibition) at 10uM” value is listed as 21.5%.

`Cc1cccc(NC(=O)c2cccc(NC3=NC4CS(=O)(=O)CC4S3)c2)c1` (centres unmarked): the “hERG current change (%, negative = inhibition) at 10uM” value is reported as 8.5%.

As for `COc1ccccc1CNC(=O)C(=O)Nc1nccs1`, the “hERG current change (%, negative = inhibition) at 10uM” value was 14.1%.

On to `COc1ccc(CNc2cc([N+](=O)[O-])ccc2OC)cc1`, for which the “hERG current change (%, negative = inhibition) at 10uM” value is reported as -1.02%.

With `COc1ccc(C(C)=O)c(Oc2ccc(S(=O)(=O)N3CCOCC3)cn2)c1`, the “hERG current change (%, negative = inhibition) at 10uM” value is given as -7.05%.

As for `O=C(COC(=O)c1ccccc1Cl)NC(=O)NCc1ccccc1`, the “hERG current change (%, negative = inhibition) at 10uM” value is recorded as -0.542%.

`COC(=O)c1[nH]c2cc(OC)ccc2c1NC(=O)CCN1CCSCC1`: the “hERG current change (%, negative = inhibition) at 10uM” value is on record as 7.01%.

As for `O=C(CNC(=O)C12CC3CC(CC(C3)C1)C2)OCc1ccc(F)cc1Cl`, the “hERG current change (%, negative = inhibition) at 10uM” value is listed as -6.69%.

As for `O=C(COc1cccc(C(F)(F)F)c1)Nc1ccc2[nH]ncc2c1`, the “hERG current change (%, negative = inhibition) at 10uM” value was 1.33%.

On to `COc1ccc(C2/C=C\CN(C(=O)NC(C)C)CC(=O)N2Cc2ccc(F)cc2)cc1` (centres unmarked), for which the “hERG current change (%, negative = inhibition) at 10uM” value is -2.92%.

As to `Cc1ccc(-n2nc3c(=O)n(CC(=O)NC4CCCCC4)nc(C)c3c2C)cc1`, the “hERG current change (%, negative = inhibition) at 10uM” value is recorded as 3.61%.

As for `CCc1ccccc1NC(=O)Cn1nnc(-c2cccnc2)n1`, the “hERG current change (%, negative = inhibition) at 10uM” value worked out at 5.3%.

Consider `CCS(=O)(=O)N1CCC(C(=O)Nc2cccc(F)c2)CC1`, for which the “hERG current change (%, negative = inhibition) at 10uM” value is recorded as -6.51%.

Consider `CN(CC(=O)Nc1ccc(N2CCOCC2)cc1)CC(=O)Nc1ccc(Cl)cc1[N+](=O)[O-]`, for which the “hERG current change (%, negative = inhibition) at 10uM” value is -40.9%.

For `CC(C)N(CCNC(=O)C1CCN(S(=O)(=O)N2CCOCC2)CC1)Cc1ccccc1`, the “hERG current change (%, negative = inhibition) at 10uM” value amounted to 1.64%.

Regarding `COc1ccc(CNC(=O)Nc2cccc(Cl)c2)cc1`, the “hERG current change (%, negative = inhibition) at 10uM” value is on record as 8.75%.
